Laboratory results as given in PubChem BioAssay AID360 (National Center for Advancing Translational Sciences (NCATS), 2006).
Hit rate of the full screen: of about 48,000 compounds, about 550 (1.1%) were called active. Another 4% or so got no clear call; they are omitted. Rule as the data show it: active = potency below about 15 µM; inconclusive = mostly about 16 µM to 33 µM; inactive = weaker than that. The list shows a part of the results.

target: Lysosomal acid glucosylceramidase (Homo sapiens) (UniProt P04062); assay: Glucocerebrosidase; conditions: purified enzyme, resorufin glucoside fluorescence (screen aimed at inhibitors), 20 min;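 also: the screen sought inhibitors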
In short: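 Compounds titrated against 0.2 nM normal enzyme, 30 uM resorufin beta-D-glucopyranoside substrate, citrate/phosphate buffer with taurocholate and tween-20, pH 5.9. Reaction ran 20 min at room temperature; fluorescence (Ex 548/Em 600) gave AC50.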
Potency is read from the fitted curve at half-maximal effect.

Chain of UniProt P04062 (P04062 whole entry, looked up): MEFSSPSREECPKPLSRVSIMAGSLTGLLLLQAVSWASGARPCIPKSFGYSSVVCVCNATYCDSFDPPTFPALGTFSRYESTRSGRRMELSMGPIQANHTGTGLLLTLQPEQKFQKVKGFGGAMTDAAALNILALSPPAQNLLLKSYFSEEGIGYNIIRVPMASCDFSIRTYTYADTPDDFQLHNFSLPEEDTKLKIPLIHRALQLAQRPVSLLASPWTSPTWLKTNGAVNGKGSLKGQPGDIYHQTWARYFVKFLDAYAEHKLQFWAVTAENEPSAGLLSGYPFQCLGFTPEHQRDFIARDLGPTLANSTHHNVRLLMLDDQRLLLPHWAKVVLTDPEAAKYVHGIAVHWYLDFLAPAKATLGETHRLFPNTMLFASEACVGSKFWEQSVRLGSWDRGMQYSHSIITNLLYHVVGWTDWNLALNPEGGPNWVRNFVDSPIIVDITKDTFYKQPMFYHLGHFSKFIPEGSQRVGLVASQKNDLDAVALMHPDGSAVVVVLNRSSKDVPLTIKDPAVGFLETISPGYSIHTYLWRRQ

Potency, inactive:
COc1ccc(N(C)S(=O)(=O)c2c(C)[nH]c(=O)[nH]c2=O)cc1 > 76.9 µM, CC(C)OCCCNC(=O)CCc1nc(-c2ccccc2)no1 > 76.9 µM, COc1cc(OC)cc(C(=O)N(Cc2cc3cc(C)ccc3[nH]c2=O)C(C)C)c1 > 76.9 µM, CS(=O)(=O)NCc1ccc(C(=O)NCCOc2ccccc2)cc1 > 76.9 µM, Cc1nc(-n2cc(F)c(=O)[nH]c2=O)c2nc(C)oc2n1 > 76.9 µM, Cc1nn2c(=O)c(NC(=O)c3ccc(F)cc3)cnc2s1 > 76.9 µM, COc1cccc(NC(=O)CSc2nncn2-c2ccccn2)c1 > 76.9 µM, Cc1ccc(-n2c(SCc3cc(=O)n4ccsc4n3)nnc2-c2cccnc2)c(C)c1 > 76.9 µM, Cc1cccc(NC(=O)CSc2nnc(-c3cc(C)n(-c4ccccc4)c3C)o2)c1C > 76.9 µM, C/C=C/c1ccc(OCCCn2cncn2)c(OC)c1 > 76.9 µM, CCn1cc(C(=O)NCC2CCCO2)c2cc(OC)c(OC)cc2c1=O (centres undefined) > 76.9 µM, CCN(CC)S(=O)(=O)c1ccc(Br)c(OC)c1 > 76.9 µM, Cn1c(=O)c2c(-c3ccncc3)c3c(nc2n(C)c1=O)-c1ccccc1C3=O > 76.9 µM, Cc1ccc(CCC(=O)Nc2ccc(S(N)(=O)=O)cc2)o1 > 76.9 µM, CC1(C)Cc2c(c(=S)nc(-c3ccccc3)n2CCN2CCOCC2)CO1 > 76.9 µM, CCCc1[nH]nc2c1C1(C(=O)N(C(C)C)c3ccccc31)C(C#N)=C(N)O2 (centres undefined) > 76.9 µM, Cc1ccc(C)c(NC(=O)CSc2nnc(-c3ccco3)o2)c1 > 76.9 µM, CCCc1nnc(NC(=O)CCC(=O)N2CCN(CCOc3ccc(C)cc3)CC2)s1 > 76.9 µM, Cc1cc(C)nc(N(C#N)CN2C(=O)c3ccccc3S2(=O)=O)n1 > 76.9 µM, O=C(c1cccc(Cl)c1)N1CCCC(C(=O)N2CCCCCC2)C1 (centres undefined) > 76.9 µM, CC(c1ccccc1)n1c(NCCCn2ccnc2)nc2c1c(=O)[nH]c(=O)n2C (centres undefined) > 76.9 µM, CCc1nc(SCC(=O)Nc2nccs2)c2oc3ccccc3c2n1 > 76.9 µM, O=C(Cn1c(=O)n(CCC(=O)N2CCc3ccccc3C2)c(=O)c2ccccc21)NCC1CCCO1 (centres undefined) > 76.9 µM, OC(CCN1CCOCC1)(c1ccc(Cl)cc1)C1CCCCC1 (centres undefined)
